# Reference: PubChem BioAssay (EPA / NIEHS)
# For some assays here: Shown are results outside the selection of hits, which stands elsewhere. Inconclusive results are not listed. Only a part is listed here, and it is no random draw. Activity calls are given as the source filed them. The calls were made as follows, unless noted: active = hit-call score of the fitted dose curve at least 0.9, where 1 is the maximum; inactive = score below 0.9.
# Experiments:
# [1] = read-out: Monocyte Chemoattractant Protein-1 (MCP1), CCL2 (gene 6347); assay: BSK_SAg_MCP1: BioMAP Diversity Plus: SAg Assay for Monocyte Chemoattractant Protein-1 (MCP1) Biomarker Activity (AID 2283090); conditions: actives raise or lower the signal; primary human HUVEC with PBMC
# In short: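 Values derive from bidirectional fitting of ELISA-measured MCP1 against DMSO controls. Readings were taken 24 h after dosing human vascular endothelial cells co-cultured with peripheral blood mononuclear cells under superantigen stimulation.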
# [2] = read-out: CFLAR gene, CFLAR (gene 8837); assay: LTEA_HepaRG_CFLAR: Life Technologies and Expression Analysis (LTEA) Assay for CFLAR gene using HepaRG (AID 2283455); conditions: actives raise or lower the signal; mRNA level, 48 h
# In short: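 Transcript level by qRT-PCR (normalized to ACTB, GAPDH and POLR2A) after 48 h chemical exposure of HepaRG cells, top concentration 100 uM with half-log steps, 0.5% DMSO vehicle, duplicates; fitted bidirectionally against DMSO baseline.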
# [3] = read-out: growth arrest and DNA damage 45 (GADD45A), GADD45A (gene 1647); assay: LTEA_HepaRG_GADD45A: Life Technologies and Expression Analysis (LTEA) Assay for growth arrest and DNA damage 45 (GADD45A) using HepaRG (AID 2283458); conditions: actives raise or lower the signal; mRNA level, 48 h
# In short: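 Eight-point concentration-response in HepaRG cells: 48 h chemical exposure, 0.5% DMSO vehicle, top dose 100 uM. Normalized qRT-PCR mRNA readout with bidirectional fitting relative to DMSO.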
# [4] = read-out: Bcl-2 (BAX) gene, BAX (gene 581); assay: LTEA_HepaRG_BAX: Life Technologies and Expression Analysis (LTEA) Assay for Bcl-2 (BAX) gene using HepaRG (AID 2283470); conditions: actives raise or lower the signal; mRNA level, 48 h
# In short: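 Human HepaRG cells treated in duplicate for 48 h across eight concentrations (max 100 uM, 0.5% DMSO); BAX expression measured by qRT-PCR.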
# BCL2L11 (gene 10018) = assay: LTEA_HepaRG_BCL2L11: Life Technologies and Expression Analysis (LTEA) Assay for Bcl-2 (BCL2L11) gene using HepaRG (AID 2283473); conditions: actives raise or lower the signal; mRNA level, 48 h
# In short: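 Cells were plated, cultured 48 h, switched to serum-free induction medium, then dosed in duplicate for 48 h at eight half-log concentrations up to 100 uM. Lysates underwent RNA isolation and TaqMan qRT-PCR; gain or loss versus DMSO was fitted.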
# [5] = read-out: MicroRNA 122 (MIR122), gene 406906; assay: LTEA_HepaRG_MIR122: Life Technologies and Expression Analysis (LTEA) Assay for MicroRNA 122 (MIR122) using HepaRG (AID 2283516); conditions: actives raise or lower the signal; mRNA level, 48 h; also: the transcript read is the microRNA miR-122
# In short: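 Changes in transcript abundance, up or down relative to 0.5% DMSO vehicle, were scored after 48 h chemical treatment of HepaRG cells (maximum 100 uM). Quantification used TaqMan qRT-PCR normalized to housekeeping genes.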
# [6] = read-out: X-box binding protein 1 (XBP1), XBP1 (gene 7494); assay: LTEA_HepaRG_XBP1: Life Technologies and Expression Analysis (LTEA) Assay for X-box binding protein 1 (XBP1) using HepaRG (AID 2283540); conditions: actives raise or lower the signal; mRNA level, 48 h
# In short: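 Human HepaRG monolayers receive test chemical for 48 h across an eight-point half-log series starting at 100 uM. XBP1 mRNA gain or loss is scored against DMSO by qRT-PCR.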
# [7] = read-out: Interleukin-8 (IL8), CXCL8 (gene 3576); assay: BSK_SAg_IL8: BioMAP Diversity Plus: SAg Assay for Interleukin-8 (IL8) Biomarker Activity (AID 2283094); conditions: actives raise or lower the signal; primary human HUVEC with PBMC
# In short: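 Primary human endothelial cells with PBMC, exposed 24 h; IL-8 determined by ELISA, analysed bidirectionally relative to DMSO.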
# [8] = read-out: Cytochrome P450 2C19 (Homo sapiens) (UniProt P33261); assay: LTEA_HepaRG_CYP2C19: Life Technologies and Expression Analysis (LTEA) Assay for CYP2C19 using HepaRG (AID 2283482); conditions: actives raise or lower the signal; mRNA level, 48 h
# In short: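 Human HepaRG liver cells received test chemicals for 48 h (highest 100 uM, half-log dilutions in 0.5% DMSO). CYP2C19 mRNA induction or loss is read by multiplexed qRT-PCR and fitted in both directions versus vehicle.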
# MYC, MYC (gene 4609) = assay: LTEA_HepaRG_MYC: Life Technologies and Expression Analysis (LTEA) Assay for MYC using HepaRG (AID 2283518); conditions: actives raise or lower the signal; mRNA level, 48 h
# In short: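 Cells are thawed, plated and cultured 48 h, then treated for 48 h with test chemicals (eight half-log concentrations from 100 uM, 0.5% DMSO vehicle). RNA is isolated and MYC expression quantified by qRT-PCR against three housekeeping genes.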
# [9] = read-out: Interleukin-1 alpha (IL1a), IL1A (gene 3552); assay: BSK_LPS_IL1a: BioMAP Diversity Plus: LPS Assay for Interleukin-1 alpha (IL1a) Biomarker Activity (AID 2283080); conditions: actives raise or lower the signal; primary human HUVEC with PBMC
# In short: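 Measured: IL-1 alpha via ELISA at 24 h in LPS-activated human umbilical vein endothelium–PBMC co-culture. Baseline: DMSO, bidirectional fitting.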
# [10] = molecular target: Agonist Androgen Response Element (ARE), AR (gene 367) (UniProt P10275); assay: OT_AR_ARELUC_AG_1440: Odyssey Thera (OT) 24-hour CHO-K1 Luciferase Assay for Agonist Androgen Response Element (ARE) (AID 2283379; active = hit-call score of the fitted dose curve at least 0.9, where 1 is the maximum)
# In short: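 Readout: luciferase bioluminescence from CHO-K1 ARE-luc cells, measured 24 h post-dosing; agonism = increased mean luminescence vs DMSO controls, fitted in positive direction.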
# [11] = CCTE_Shafer_MEA_dev_per_network_spike_spike_number_mean: CCTE's Neural Network Formation Assay for Mean Number of Spikes in a Network Spike, Shafer Lab (AID 2284053);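 also: fitted as decrease in spikes per network spike relative to DMSO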
# In short: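 Continuous twelve-day exposure of developing rat cortical networks grown over 16 microelectrodes per well; spontaneous firing is captured at four time points, and the per-network-spike spike number is integrated over development by trapezoidal AUC.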
# [12] = CCTE_Shafer_MEA_dev_mutual_information_norm: CCTE's Neural Network Formation Assay for Mutual Information Normalization, Shafer Lab (AID 2284091);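 also: mutual information between electrodes summarised as area under curve across four recording days; potency is for a decrease in mutual information relative to DMSO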
# In short: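 Shared information across electrodes, tracked on days 5, 7, 9 and 12 of network development and collapsed as trapezoidal area under the curve. Rat cortical cultures were treated continuously from plating, with treatment renewed at feeds on DIV 5 and 9; DMSO baseline, negative-direction fit.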
# [13] = IUF_NPC2-5_cell_number_120hr: Cell Number Assessment at 120 hours in the Leibniz Research Institute for Environmental Medicine (IUF) Neural Progenitor Cell Migration and Differentiation Assay (NPC2-5) (AID 2284308);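 also: count of Hoechst-stained nuclei in migration zone around plated human neural progenitor spheres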
# In short: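 Cell number is taken as all Hoechst-positive nuclei detected in the area into which cells migrate out of the sphere, scored at 120 h and referenced to DMSO solvent control, which was kept at no more than 0.1%.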
# [14] = molecular target: human CYP2C9, CYP2C9 (gene 1559) (UniProt P11712); assay: NVS_ADME_hCYP2C9: NovaScreen (NVS) CYP450-related Enzyme Activity (ADME) Assay for human CYP2C9 (AID 2283108; active = hit-call score of the fitted dose curve at least 0.9, where 1 is the maximum)
# In short: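 Fluorescence readout of CYP2C9 activity (SF9-expressed human enzyme) at 0.75 h. The primary screen used 10 uM in duplicate, with concentration-response follow-up for actives; acetonitrile was the negative control.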
# [15] = read-out: E-selectin (Homo sapiens) (UniProt P16581); assay: BSK_SAg_Eselectin: BioMAP Diversity Plus: SAg Assay for Eselectin Biomarker Activity (AID 2283091); conditions: actives raise or lower the signal; primary human HUVEC with PBMC
# In short: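 Primary human endothelial cells and peripheral blood mononuclear cells were co-cultured and exposed to chemical for 24 hours. E-selectin levels were then quantified by ELISA, with bidirectional curve fitting normalised to DMSO controls.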
# Sequence of UniProt P16581 (P16581 whole entry, looked up): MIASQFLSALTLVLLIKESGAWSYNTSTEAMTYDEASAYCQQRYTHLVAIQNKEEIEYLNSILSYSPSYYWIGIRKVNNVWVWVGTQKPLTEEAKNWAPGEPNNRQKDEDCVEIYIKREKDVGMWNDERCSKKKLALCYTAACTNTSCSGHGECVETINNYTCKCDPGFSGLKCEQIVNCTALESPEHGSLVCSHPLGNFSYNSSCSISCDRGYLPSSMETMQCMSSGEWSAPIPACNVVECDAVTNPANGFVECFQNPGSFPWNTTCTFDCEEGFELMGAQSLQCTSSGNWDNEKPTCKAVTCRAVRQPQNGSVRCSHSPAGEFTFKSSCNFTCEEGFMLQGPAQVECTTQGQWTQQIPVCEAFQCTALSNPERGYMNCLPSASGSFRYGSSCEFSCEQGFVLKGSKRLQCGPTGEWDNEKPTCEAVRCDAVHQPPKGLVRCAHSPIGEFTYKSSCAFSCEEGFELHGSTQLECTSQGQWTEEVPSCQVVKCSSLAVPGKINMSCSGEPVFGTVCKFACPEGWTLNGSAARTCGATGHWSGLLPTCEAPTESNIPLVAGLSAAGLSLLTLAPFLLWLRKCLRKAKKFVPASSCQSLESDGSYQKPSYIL
# Sequence of UniProt P11712 (P11712 whole entry, looked up): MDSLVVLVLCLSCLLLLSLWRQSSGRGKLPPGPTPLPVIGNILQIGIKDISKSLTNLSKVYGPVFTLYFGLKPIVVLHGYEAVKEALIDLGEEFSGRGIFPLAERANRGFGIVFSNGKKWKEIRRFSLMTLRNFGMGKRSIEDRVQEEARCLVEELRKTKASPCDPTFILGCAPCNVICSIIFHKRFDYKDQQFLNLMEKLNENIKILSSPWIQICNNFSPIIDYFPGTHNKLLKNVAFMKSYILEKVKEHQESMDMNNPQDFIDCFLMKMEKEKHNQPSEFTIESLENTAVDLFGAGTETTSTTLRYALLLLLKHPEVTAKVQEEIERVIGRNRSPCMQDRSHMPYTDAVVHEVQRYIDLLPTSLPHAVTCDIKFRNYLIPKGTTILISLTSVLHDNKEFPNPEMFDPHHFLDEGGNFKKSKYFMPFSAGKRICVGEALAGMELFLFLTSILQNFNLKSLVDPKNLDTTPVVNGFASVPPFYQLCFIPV
# Sequence of UniProt P10275 (P10275 whole entry, looked up): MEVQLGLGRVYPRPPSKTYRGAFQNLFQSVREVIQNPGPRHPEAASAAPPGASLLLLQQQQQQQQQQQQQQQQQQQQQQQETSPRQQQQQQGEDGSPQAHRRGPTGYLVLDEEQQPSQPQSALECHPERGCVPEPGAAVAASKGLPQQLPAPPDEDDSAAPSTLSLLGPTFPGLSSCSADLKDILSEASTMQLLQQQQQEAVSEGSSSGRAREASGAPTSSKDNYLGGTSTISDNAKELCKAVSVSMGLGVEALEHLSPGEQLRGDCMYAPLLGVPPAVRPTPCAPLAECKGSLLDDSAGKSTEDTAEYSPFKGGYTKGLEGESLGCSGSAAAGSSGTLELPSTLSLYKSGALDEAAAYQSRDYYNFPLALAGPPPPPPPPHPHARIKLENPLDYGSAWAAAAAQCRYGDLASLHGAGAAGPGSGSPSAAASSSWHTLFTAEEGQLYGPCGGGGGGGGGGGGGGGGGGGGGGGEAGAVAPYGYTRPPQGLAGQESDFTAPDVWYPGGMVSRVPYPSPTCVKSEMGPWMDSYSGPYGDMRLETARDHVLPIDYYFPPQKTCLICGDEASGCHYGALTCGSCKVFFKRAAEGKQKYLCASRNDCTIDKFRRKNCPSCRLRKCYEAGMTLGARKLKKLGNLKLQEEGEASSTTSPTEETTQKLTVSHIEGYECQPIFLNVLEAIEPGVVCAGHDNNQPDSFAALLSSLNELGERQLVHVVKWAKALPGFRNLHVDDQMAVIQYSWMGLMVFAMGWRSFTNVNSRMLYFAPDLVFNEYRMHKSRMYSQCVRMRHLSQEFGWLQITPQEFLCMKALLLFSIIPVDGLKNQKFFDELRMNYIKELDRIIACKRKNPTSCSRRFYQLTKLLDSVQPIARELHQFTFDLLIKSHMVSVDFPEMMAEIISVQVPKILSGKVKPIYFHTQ
# Sequence of UniProt P33261 (P33261 whole entry, looked up): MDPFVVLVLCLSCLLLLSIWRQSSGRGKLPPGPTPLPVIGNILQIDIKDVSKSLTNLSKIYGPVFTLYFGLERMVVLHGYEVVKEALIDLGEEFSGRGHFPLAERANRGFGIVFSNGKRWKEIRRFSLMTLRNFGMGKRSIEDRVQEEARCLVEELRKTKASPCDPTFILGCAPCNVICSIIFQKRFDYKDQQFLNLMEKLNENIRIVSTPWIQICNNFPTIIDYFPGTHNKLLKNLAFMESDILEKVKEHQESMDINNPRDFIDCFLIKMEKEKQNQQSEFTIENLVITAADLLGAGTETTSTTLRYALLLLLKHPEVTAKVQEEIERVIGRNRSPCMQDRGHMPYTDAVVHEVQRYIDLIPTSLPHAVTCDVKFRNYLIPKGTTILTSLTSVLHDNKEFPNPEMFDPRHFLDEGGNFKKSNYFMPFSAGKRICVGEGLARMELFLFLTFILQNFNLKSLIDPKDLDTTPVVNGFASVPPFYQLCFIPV
smiles,measurement,setting,value
COP(=O)(OC)OC(Br)C(Cl)(Cl)Br (configuration not stated),AC50,[1],active: 30.6 µM
same,outcome,[2],inactive
same,AC50,[3],active: 0.00316 µM
same,outcome,[4],inactive
same,outcome,BCL2L11 (gene 10018),inactive
same,outcome,[5],inactive
same,outcome,[6],inactive
CC(C)=CC1C(C(=O)OCN2C(=O)C3=C(CCCC3)C2=O)C1(C)C (configuration not stated),AC50,[7],active: 16 µM
same,outcome,[8],inactive
same,outcome,"MYC, MYC (gene 4609)",inactive
C=C(C)[C@H]1Cc2c(ccc3c2O[C@@H]2COc4cc(OC)c(OC)cc4[C@@H]2C3=O)O1,AC50,[9],active: 15 µM
same,outcome,[10],inactive
same,AC50,[11],active: 0.015 µM
same,AC50,[12],active: 0.011 µM
same,AC50,[13],active: 0.167 µM
CCCCCCCCCCCCCN1CC(C)OC(C)C1 (configuration not stated),AC50,[14],active: 18 µM
OCC1CO1 (configuration not stated),outcome,[15],inactive
